Laboratory results: the supplement of paper PMC3722116
Growth of fresh clinical P. falciparum isolates by hypoxanthine uptake over 42 h; for most isolates 1.6-1,647 nM mefloquine, 0.044-87 nM artesunate, 10-10,256 nM chloroquine, 2.4-236 nM lumefantrine. EC50, lower = more sensitive; slope from the same fit, higher = steeper. No active / inactive call. Fits with a coefficient of variation above 100% are not listed here; 15-28% of fits exceed 15%. Isolates are numbered anew.

Assays:
artesunate [1] = compound: T1, C[C@H]1[C@H](OC(=O)CCC(=O)O)O[C@@H]2O[C@@]3(C)CC[C@H]4[C@H](C)CC[C@@H]1[C@@]24OO3 [artesunate]; assay: slope of the dose-response curve (dimensionless); higher = steeper concentration-effect curve
Experimental: (§1)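 Hypoxanthine uptake by fresh isolates, duplicate serial dilutions, 24 h of drug plus 18 h after the label; sigmoid fit per isolate.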

mefloquine [2] = compound: T2, OC(c1cc(C(F)(F)F)nc2c(C(F)(F)F)cccc12)C1CCCCN1 [mefloquine]; assay: as above
Experimental: as §1

chloroquine [3] = compound: T3, CCN(CC)CCCC(C)Nc1ccnc2cc(Cl)ccc12 [chloroquine]; assay: as above
Experimental: as §1

lumefantrine [4] = compound: T4, CCCCN(CCCC)CC(O)c1cc(Cl)cc2c1-c1ccc(Cl)cc1/C2=C/c1ccc(Cl)cc1 [lumefantrine]; assay: as above
Experimental: as §1

artesunate [5] = compound: T1, artesunate
Experimental: as §1

mefloquine [6] = compound: T2, mefloquine
Experimental: as §1

chloroquine [7] = compound: T3, chloroquine
Experimental: as §1

lumefantrine [8] = compound: T4, lumefantrine
Experimental: as §1

| Test System | slope (artesunate [1]) | slope (mefloquine [2]) | slope (chloroquine [3]) | slope (lumefantrine [4]) | EC50 of parasite growth (artesunate [5]) | EC50 of parasite growth (mefloquine [6]) | EC50 of parasite growth (chloroquine [7]) | EC50 of parasite growth (lumefantrine [8]) |
| --- | --- | --- | --- | --- | --- | --- | --- | --- |
| Plasmodium falciparum isolate 73 (pfmdr1 allele: 86N, 1042N, pfmdr1 copies: 2) | 4.86 | 1.85 | 2.91 | 2.37 | 0.000431 µg/mL | 0.0149 µg/mL | 0.0506 µg/mL | 0.0145 µg/mL |
| Plasmodium falciparum isolate 156 (pfmdr1 allele: 86N, 1042N, pfmdr1 copies: 2) | 8.58 | 3.52 | 2.28 | 3.13 | 0.000874 µg/mL | 0.0818 µg/mL | 0.0496 µg/mL | 0.107 µg/mL |
| Plasmodium falciparum isolate 91 (pfmdr1 allele: 86N, 1042N, pfmdr1 copies: 2) | 10 | 3.16 | 1.86 | 7.9 | 0.000482 µg/mL | 0.0258 µg/mL | 0.0511 µg/mL | 0.0405 µg/mL |
| Plasmodium falciparum isolate 208 (pfmdr1 allele: 86N, 1042N, pfmdr1 copies: 1) | 3.53 | 1.78 | 4.04 | 2.6 | 0.0002 µg/mL | 0.00417 µg/mL | 0.0726 µg/mL | 0.00765 µg/mL |
| Plasmodium falciparum isolate 44 (pfmdr1 allele: 86N, 1042N, pfmdr1 copies: 1) | 10 | 1.18 | 5.73 | 0.975 | 0.00191 µg/mL | 0.0228 µg/mL | 0.11 µg/mL | 0.0255 µg/mL |
| Plasmodium falciparum isolate 182 (pfmdr1 allele: 86N, 1042N, pfmdr1 copies: 1) | 10 | 2.71 | 6.6 | 1.37 | 0.0021 µg/mL | 0.0339 µg/mL | 0.195 µg/mL | 0.0175 µg/mL |
| Plasmodium falciparum isolate 344 (pfmdr1 allele: 86N, 1042N, pfmdr1 copies: 2) | 9.51 | 2.26 | 2.41 | 3.08 | 0.00157 µg/mL | 0.0346 µg/mL | 0.0551 µg/mL | 0.0101 µg/mL |
| Plasmodium falciparum isolate 353 (pfmdr1 allele: 86N, 1042N, pfmdr1 copies: 1) | 5.33 | 2.91 | 6.22 | 1.68 | 0.000367 µg/mL | 0.0257 µg/mL | 0.224 µg/mL | 0.0336 µg/mL |
| Plasmodium falciparum isolate 427 (pfmdr1 allele: 86N, 1042N, pfmdr1 copies: 1) | 5.74 | 3.09 | 3.17 | 2.44 | 0.00118 µg/mL | 0.0367 µg/mL | 0.0937 µg/mL | 0.0188 µg/mL |
| Plasmodium falciparum isolate 229 (pfmdr1 allele: 86N, 1042N, pfmdr1 copies: 3) | 10 | 2.49 | 4.28 | 2.26 | 0.000918 µg/mL | 0.0214 µg/mL | 0.0428 µg/mL | 0.00895 µg/mL |
| Plasmodium falciparum isolate 478 (pfmdr1 allele: 86N, 1042N, pfmdr1 copies: 1) | 8.06 | 2.89 | 3.67 | 5.7 | 0.000745 µg/mL | 0.0464 µg/mL | 0.0688 µg/mL | 0.037 µg/mL |
| Plasmodium falciparum isolate 433 (pfmdr1 allele: 86N, 1042N, pfmdr1 copies: 1) | 7.58 | 2.2 | 3.82 | 1.74 | 0.000508 µg/mL | 0.0401 µg/mL | 0.0962 µg/mL | 0.012 µg/mL |
| Plasmodium falciparum isolate 473 (pfmdr1 allele: 86N, 1042N, pfmdr1 copies: 2) | 5.55 | 3.81 | 2.49 | 2.99 | 0.000832 µg/mL | 0.0371 µg/mL | 0.0448 µg/mL | 0.0177 µg/mL |
| Plasmodium falciparum isolate 312 (pfmdr1 allele: 86N, 1042N, pfmdr1 copies: 1) | 7.57 | 2.95 | 3.48 | 2.7 | 0.000638 µg/mL | 0.0342 µg/mL | 0.133 µg/mL | 0.033 µg/mL |
| Plasmodium falciparum isolate 25 (pfmdr1 allele: 86N, 1042N, pfmdr1 copies: 3) | 4.71 | 1.27 | 1.27 | 1.54 | 0.00177 µg/mL | 0.0628 µg/mL | 0.114 µg/mL | 0.0254 µg/mL |
| Plasmodium falciparum isolate 354 (pfmdr1 allele: 86N, 1042N, pfmdr1 copies: 1) | 4.37 | 1.83 | 2.69 | 2.5 | 0.000596 µg/mL | 0.0177 µg/mL | 0.315 µg/mL | 0.0198 µg/mL |
| Plasmodium falciparum isolate 274 (pfmdr1 allele: 86N, 1042N, pfmdr1 copies: 1) | 3.18 | 1.68 | 2.59 | 0.667 | 0.000387 µg/mL | 0.00496 µg/mL | 0.0806 µg/mL | 0.00285 µg/mL |
